The values that follow come from patent US20230265479A1 (priority 2020, published 2023).

What all share (assay type): cell-based, human
The test system of assay [1] is Firefly Luciferase reporter gene driven by the C3P3-G1 system in HEK-293 cells.
The test system of assay [2] is Firefly Luciferase reporter gene, conventional nuclear expression (pCMVScript-Luciferase) in HEK-293 cells.
The test system of assay [3] is Firefly Luciferase reporter gene driven by the C3P3-G2 system in HEK-293 cells.

Turning to `O=C1Nc2ccc3ncsc3c2/C1=C/c1cnc[nH]1` [CAS 608512-97-6], the “Effect on Firefly Luciferase expression (in words)” value in assay [1] is “dose-dependent increase”; in assay [2], “no detectable effect”; in assay [3], “dose-dependent increase”.
